Results taken from the supplement of paper PMC12632987.
Whole data set: some 4,500 sequences, median “median log2 fold change of GCK-ALFA target abundance (FLAG IP / Myc IP barcode read proportion)” near 0.078, cut for the lowest 2% near -0.6. This is one part of the list.

B1: GBRAP_160_4381 (protein)
chain: SEELKELKERVEELKEEFEEEAEDLETEEVRTLAIGVLSEIAADVWSNEAVSEETKDKIMEIIDEAIEKIRENEDAEPEEIVEIVTEALEKIIELIKEEE
B2: GBRAP_52_6369 (protein)
chain: KLEEALELLEKALEAMLAGKEEEAEEILRELVENYDEETILAAAKKLAEKLKSGTLEEAEAFLELAIMLADIMEEEGRSEAVGDEIEAIAAKTYMEILKK
B3: GBRAP_160_3966 (protein)
chain: SEEVEKLIEEIEEIFEEAKELIEGESFEERLTIVRVAVGEVLLLADESPLVSDETEEKIAEVGDELVATLEANPDFSLEEIKALIDEAEEKIKEIILEEH
B4: GBRAP_11_2781 (protein)
chain: KKEKLEEIIKKAKEAIELAKKLLKEGLDNEELIKKLKKALEELKKLVEENLDEGTKKLVEIAEELFKEFLEDEENKEEYLKNLIAALRVLEGQALLELEE
B5: GBRAP_125_3150 (protein)
chain: KKEALLELAEALARLAGLSEEEIAELREIAEASDPAQTVVAILLAAGWEEAAELAEKVIDKLTEEELEELIALARALLDASPEEARAALLALLEELLAKQ
B6: GBRAP_184_5103 (protein)
chain: KTLVVEVEADTKEEALAKLFKAIDEAAAQGADLIVLLKLNNVSEEEIVEVVREIGKRAKEAGIPRLTIGIENELSEETVDKLIKVADELGINLVLAIPDE
B7: GBRAP_160_4640 (protein)
chain: PESLKELKEIVDEGTAIVLEEIDAGDLANAIAALRVMVGEVVREAMEDPRFSDEDVDKLDKLGDAHVARLEAARGASKEELKAIVEEAAADLKALLESFY
B8: GBRAP_128_3160 (protein)
chain: AVEEARKKTEEIMEKIKNSSLEEAKKLVEELVDMLGTLNEEEVEAVREVVIEKLPELSVEKLEILADVLRKNRDKLPPYAQEEAADIEVEALNEAEEKEE
B9: GBRAP_83_6928 (protein)
chain: KEKIVVAANDDNIDEAFEAAIDLQKNEGYEVDVEVIITKEGFPKLKKAFEKMAKAGWNGTLDILAVGATKEEVEKLKAELEAIAKKYGVNVKINVTQVEP
B10: GBRAP_160_4407 (protein)
chain: SEALKETAERILEAVKDELDLLLELGKIDPKAAAGLLEGTVLLEMFEDDSLTEEQEEKLEELAERLAERLEKLLKEEGEMTEEIRKELLEEAKRGLEEII
B11: GBRAP_160_4237 (protein)
chain: SAELEALRKDITDELELLLDVLLESPKSNWRAYARAFAGDIVQLVIEDPNASDETEEKVDELAEEMVEDLVAAKDASPEEIAALLAEYAERIVATVAKEL
B12: GBRAP_160_4046 (protein)
chain: SEKVKAAREESRALFAEAAAMMEDLSPEEAAVLMEVTVGEAIMELVERGIEITPEIDAVVDEARARRKAFLADPTTTREEVIAALRELEAALAAALDAME
B13: GBRAP_139_3756 (protein)
chain: SATAAAAARLAALVADPATTLEQIVAAVEEAAKTLDEEGIKAVLAALAAALVSQPVERIEEIEDAVLEILKKEGKSEDVIDFAEGEFDGAAALSAAREEE
B14: GBRAP_95_7067 (protein)
chain: NDDELVLLDDAEIAETLAELGDAEGAAEAIERALEAAAKLPELTPEQQAALARLLDVLERIAPKIPKERALELAERLRELATDPELQARAEELIEEIRKR
B15: GBRAP_52_6198 (protein)
chain: MREEARRLAEAVFEAVKAGDLEKARELLRELARKKDEELIRLFAEEMARLALEVPDEDLDYVFETAELAEEVFEEEGVDEAIADDFIARVAAALYKREQA
B16: GBRAP_83_6908 (protein)
chain: AEEITVVATGDRAVAAVDAVIDLTKEEGKDVDVEILATPADFDKVLAAVERLAEAGVEVDLTVYMRGATPEEAAALRARLEAIAARHGVDIDVEVVLLEE
B17: GBRAP_95_7021 (protein)
chain: EDDQLAADSDAEVLETAVDLGDEAAARAAARRLAATVAADPSVRFPPDLSPAAVRVVIEAAREEFDRETAARLLERLAASAADPEVRALARAALAEVRAE
B18: GBRAP_184_5350 (protein)
chain: TTLEVVIEADTVDAAIAQLNAAAAEAAAAGAGLNVLIKVPINTVADAEKLMAALAAAAAAGVLTGTVGIEGVSSDEAIIDTLVDGADAAGIRVVLALDEE
B19: GBRAP_84_7008 (protein)
chain: SRREERLALIEEILARSSIELRRLLLAYLILANDNEGATLALQALLAEDPEAAAEALDLATEAYEEGKEEEVEKRLLEEAAKEGEEVRALVERLLELIRS
B20: GBRAP_57_6476 (protein)
chain: SAKKAELEAAKARALALIRAGAPEEEIREALSEFLSLLSKDSLLLLLAYMGVDARADDPKEVLVEKATEALLEVLRTEGPERAERIIEDAAAEDLEELEE
B21: GBRAP_78_6730 (protein)
chain: ELKEKLEEALEVAAEAARLAVHRVSNEVIAEIVEALSHLHEALELVEEGGPKEEILEELEKALEHLKKALELLPESAEEIRKLVEEAIKLVKEAIKLVKK
B22: GBRAP_160_4093 (protein)
chain: SEKVEKIIKEIKELEEETKKDIEGENIEQRATILRGFGGDVLMLLFESGVVPDEVEDFADKEFDALVAKVEANPELTLEEIKALLDEVVDKVIKKIKEKG
B23: GBRAP_11_2806 (protein)
chain: KKEKLKELAKLLEEAAKKLDELLEKGTDDKELLEEIEKLLEEAEKLAKELGDKDLIKLVEIAKELVKKAKEDPANAEEYLQLARATLRVAEGQVLLLIEE
B24: GBRAP_52_6151 (protein)
chain: AAARAAAYAREFVAAVRAGDEEKARAIMKEIAATLDDEEIALFLREVARLVAGLSPEDRERVVEAVLEFEDIAVAAGHDEDILSYETARVAGAAYEALQR
B25: GBRAP_106_2562 (protein)
chain: SKLDELKAFLEEKANEAFATVEAVTQAIVDRFGVDRAEAEAAVRAHALAYVNWKLTQKAKELGINNPEMMKAIEEVMRANRDKSKEEIIAKAKAVLDKHL
B26: GBRAP_125_3044 (protein)
chain: GMEEAIEALKELAKIFGLSEEEIEELAKLAKEFGVKGALIALLLAEGEEELAELAAKLSEEAVKEVLKKFLEWIKENPNITKEEAIEKLKELLKEALKKE
B27: GBRAP_184_5154 (protein)
chain: KVLEFVIKAKNLEELKKKLEEIEEAAKKEKAKLIILLDVEKLTKEMVDELAKRVKEMKDKGYVKEVVVGVDADLTEEMVDYVLKKFDEAGAKVAIALDEE
B28: GBRAP_52_6084 (protein)
chain: MKEKIEKTAKEIYEAIKAGDKEKALELIKKAVEEFSKEEIKEMLELTAKRVASLGDDAHELFVDILDEAEDILIEAGISEDDALLIVGSAEAALAKAVAA
B29: GBRAP_43_5786 (protein)
chain: SEELVEGALETARLLFEEPSISQEQKVRAAKAAFDLAADEGIDNREAIRAVVEAAAASLDKESLEELRDHALELAERYPELRETFLEAAELLEAAIKALE

The binders below were run against GABARAP, O95166 (assay: median log2 fold change of GCK-ALFA target abundance (FLAG IP / Myc IP barcode read proportion) (log2 ratio); each designed protein is fused to an ALFA-tag nanobody in HEK293 cells to bring the named protein to FLAG-tagged glucokinase (GCK); Myc marks an untargeted standard; higher = target protein stabilised (more abundant)). Conditions: target protein: 3xFLAG-MCP-GCK-ALFA reporter; HEK293 landing pad (RPLP).
Summary of the method: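 An ALFA-nanobody-fused binder library was recombined into HEK293 landing-pad cells and induced with 2 μg mL^−1 doxycycline. Cells were transfected with a plasmid expressing a FLAG-tagged target and a Myc-tagged standard. After 48 h, lysates underwent anti-FLAG and anti-Myc immunoprecipitation, and circular RNA barcodes were reverse transcribed, amplified and sequenced. Target abundance is the per-binder median log2 ratio of FLAG to Myc barcode read proportions. Barcodes needed ≥10^−7 proportion in both replicates, binders ≥3 barcodes per replicate, and a 10^−6 pseudocount was added; the two replicates were pooled.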

Sequence of GABARAP, O95166 (O95166 whole entry, the tested form may be a part): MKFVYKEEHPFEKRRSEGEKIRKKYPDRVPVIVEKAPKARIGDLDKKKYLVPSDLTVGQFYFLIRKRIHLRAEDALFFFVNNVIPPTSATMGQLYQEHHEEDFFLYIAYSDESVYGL

Row | Binder | median log2 fold change
1 | B1 | 0.00756
2 | B2 | -0.566
3 | B3 | -0.398
4 | B4 | -0.159
5 | B5 | -0.0683
6 | B6 | -0.0904
7 | B7 | 0.133
8 | B8 | 0.266
9 | B9 | 0.0213
10 | B10 | -0.289
11 | B11 | -0.318
12 | B12 | -0.101
13 | B13 | 0.18
14 | B14 | 0.261
15 | B15 | -0.0387
16 | B16 | 0.0204
17 | B17 | 0.211
18 | B18 | -0.0764
19 | B19 | -0.393
20 | B20 | 0.266
21 | B21 | 0.00114
22 | B22 | 0.247
23 | B23 | -0.142
24 | B24 | 0.0301
25 | B25 | -0.133
26 | B26 | 0.19
27 | B27 | -0.0211
28 | B28 | -0.732
29 | B29 | 0.296
